Data on 87 compounds can be found in PMC4336329 (PLoS ONE, 2015).

Among all 310,000 compounds or so, about 2,200 (0.71%) showed an effect of 50% or more. The effect is printed as a negative number. The list shows a part of the results.

The target of this assay is human ether-à-go-go-related gene (hERG) potassium channel (human, UniProt Q12809). The assay can be described thus: primary screen, population patch clamp on CHO cells stably expressing hERG.
Sequence of human ether-à-go-go-related gene (hERG) potassium channel (Q12809 whole entry, looked up): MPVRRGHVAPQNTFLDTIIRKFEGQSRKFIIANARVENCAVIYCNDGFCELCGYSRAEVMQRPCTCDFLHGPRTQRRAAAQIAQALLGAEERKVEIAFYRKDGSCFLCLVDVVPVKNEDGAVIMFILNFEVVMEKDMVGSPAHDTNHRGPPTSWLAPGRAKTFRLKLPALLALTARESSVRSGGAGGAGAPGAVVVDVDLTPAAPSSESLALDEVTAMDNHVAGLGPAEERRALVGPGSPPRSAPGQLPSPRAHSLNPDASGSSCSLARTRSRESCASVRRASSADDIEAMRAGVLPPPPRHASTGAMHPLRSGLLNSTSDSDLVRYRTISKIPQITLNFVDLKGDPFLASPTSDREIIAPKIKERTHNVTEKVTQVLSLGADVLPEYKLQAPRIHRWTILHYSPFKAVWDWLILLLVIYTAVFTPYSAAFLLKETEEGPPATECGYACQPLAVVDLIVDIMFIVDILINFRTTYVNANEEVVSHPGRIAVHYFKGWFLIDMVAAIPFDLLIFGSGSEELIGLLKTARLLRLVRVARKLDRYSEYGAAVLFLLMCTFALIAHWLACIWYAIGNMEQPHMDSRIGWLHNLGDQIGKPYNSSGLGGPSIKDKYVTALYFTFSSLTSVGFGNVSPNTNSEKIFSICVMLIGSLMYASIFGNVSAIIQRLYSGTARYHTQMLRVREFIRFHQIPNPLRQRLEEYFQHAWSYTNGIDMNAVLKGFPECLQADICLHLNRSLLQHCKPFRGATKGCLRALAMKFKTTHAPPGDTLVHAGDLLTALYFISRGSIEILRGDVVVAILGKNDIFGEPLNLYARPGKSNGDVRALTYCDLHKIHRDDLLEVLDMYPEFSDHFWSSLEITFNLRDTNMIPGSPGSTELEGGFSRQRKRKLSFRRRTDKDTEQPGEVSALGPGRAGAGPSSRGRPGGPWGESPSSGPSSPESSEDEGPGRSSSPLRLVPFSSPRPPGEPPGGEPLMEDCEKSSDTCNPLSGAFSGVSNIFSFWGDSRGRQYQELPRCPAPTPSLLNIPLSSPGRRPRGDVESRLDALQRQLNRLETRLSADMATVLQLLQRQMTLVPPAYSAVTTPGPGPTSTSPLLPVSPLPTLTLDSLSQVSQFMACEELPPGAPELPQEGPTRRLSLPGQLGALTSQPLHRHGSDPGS
Consider `Cc1nn(CC(=O)N2CCN(c3cccc(C(F)(F)F)c3)CC2)c(=O)c2cccn12`, for which the “hERG current change (%, negative = inhibition) at 1uM” value is reported as -1.82%. With `COc1cccc(C(=O)NCC2(c3ccccc3)CCCC2)c1OC`, the “hERG current change (%, negative = inhibition) at 1uM” value is reported as 9.34%. For the compound `Cc1cccc(C)c1Nc1nnc(SCC(=O)Nc2cc(S(=O)(=O)N3CCCCC3)ccc2Cl)s1`, the “hERG current change (%, negative = inhibition) at 1uM” value was determined as 13.8%. Take `O=C(NN1CCOCC1)c1ccc(Br)s1`: the “hERG current change (%, negative = inhibition) at 1uM” value is 5.3%.

`COc1ccc(/C=N/NC(=O)c2ccc(CN3c4cccc5cccc(c45)S3(=O)=O)cc2)cc1`: the “hERG current change (%, negative = inhibition) at 1uM” value is 3.65%. For the compound `O=C(CCc1ccccn1)N1CCCC(CNS(=O)(=O)c2cccs2)C1` (stereo not drawn), the “hERG current change (%, negative = inhibition) at 1uM” value was 16.4%. Next, `OC1(c2ccc3c(c2)OCO3)CCN(Cc2ccccn2)CC1`: 7.76%; `Cc1ccccc1S(=O)(=O)Cc1ccc(C(=O)N2CCN(c3ncccn3)CC2)o1`: 3.93%; `CC(=O)Nc1ccc(NC(=O)CSc2nccn2Cc2ccccc2)cc1`: 10.5%. On to `COc1ccc(N2C(=O)N3[C@H](c4ccc(Br)cc4)[C@@H]4C(=O)N(C(C)(C)C)C(=O)[C@@H]4[C@]3(Cc3ccccc3)C2=O)cc1`, for which the “hERG current change (%, negative = inhibition) at 1uM” value is 4.5%.

`COC(=O)CSc1nnc(CNC(=O)Cc2ccccc2)n1-c1ccccc1OC`: the “hERG current change (%, negative = inhibition) at 1uM” value was determined as 1.77%. As for `O=C(CSc1nnc(-c2c[nH]c3ccccc23)o1)N1c2ccccc2CCc2ccccc21`, the “hERG current change (%, negative = inhibition) at 1uM” value stood at 19.7%. Next, `Cc1cc(=O)oc2c1ccc1oc(/C(=N/O)c3ccccc3)c(C)c12`: 12.3%; `O=C(N/N=C/c1cccc(OCC(=O)N2CCCC2)c1)C(=O)Nc1ccccc1F`: -8.52%; `CC(C)(C)C(=O)N(Cc1ccc(Cl)cc1)c1cnccn1`: 7.39%. For the compound `COCC(C)N=C1SCCN1Cc1ccccc1` (stereo not drawn), the “hERG current change (%, negative = inhibition) at 1uM” value was 19%. `Cc1cccc(NCC(=O)NNC(=S)Nc2ccccc2)c1`: the “hERG current change (%, negative = inhibition) at 1uM” value is listed as 13%. To `O=C(NC(=S)N1CCCc2ccccc21)c1ccc(Br)cc1` belongs 12.7%. Next, `Nn1c(SCC(=O)NC2CCCCC2)nnc1-c1ccc(Cl)cc1`: 9.07%. Next, `CC[N+](CC)(CC#CCO)CC#Cc1ccccc1.[Br-]`: 23.4%. As to `Cc1noc(NS(=O)(=O)c2ccc(N3CC(O)=C(c4ccccc4)C3=N)cc2)c1C`, the “hERG current change (%, negative = inhibition) at 1uM” value turned out to be 19.3%.

Consider `CNc1c(NS(=O)(=O)c2ccc(C3CCCCC3)cc2)c(=O)oc2ccccc12`, for which the “hERG current change (%, negative = inhibition) at 1uM” value was 13.3%.

As to `COc1cccc(C2c3[nH]c4ccccc4c3C[C@H]3C(=O)N(CCCOC(C)C)CC(=O)N23)c1` (stereo partly drawn), the “hERG current change (%, negative = inhibition) at 1uM” value turned out to be 17.2%. To `COc1cc2c(cc1OC)C(c1cc(OC)c(OC)cc1[N+](=O)[O-])N(C(C)=O)CC2` (stereo not drawn) belongs 10.4%; to `NNC(=O)c1cccc(COc2cccc(Br)c2)c1`, 2.35%; to `O=C(Nc1ccc2c(c1)OCO2)C1CCCN1C(=O)Nc1ccccc1` (stereo not drawn), 12.7%. To `COc1ccc(NC(=O)C2Cc3ccccc3CN2C(=O)c2ccco2)cc1` (stereo not drawn) belongs 12.9%. To `CC(C(=O)c1c[nH]c2ccccc12)N1CCSCC1` (stereo not drawn) belongs -1.5%; to `CCOc1cc(C2Nc3cccc4cccc(c34)N2)ccc1O`, 8.31%; to `CCCn1nc(C(=O)Nc2nc3ccccc3[nH]2)c2ccccc2c1=O`, -7.23%. Consider `CCN(CC)S(=O)(=O)c1ccc(N2CCCC2)c(NC(=O)Cc2ccc(OC)cc2)c1`, for which the “hERG current change (%, negative = inhibition) at 1uM” value stood at 8.62%. Next, `O=C1NC2(CCCCC2)C(=O)N1c1cccc(Cl)c1`: 16%; `Cc1[nH]c(=O)[nH]c(=O)c1S(=O)(=O)Nc1ccc(Cl)c([N+](=O)[O-])c1`: 9.99%. `CNC(=O)C1CC(=O)N(CCc2ccc(OC)cc2)C(=Nc2ccc(OC)cc2)S1` (stereo not drawn): the “hERG current change (%, negative = inhibition) at 1uM” value was determined as 7.43%. Take `COc1ccc(-c2cc(-c3cccs3)c(C#N)c(SCC(=O)NCc3ccco3)n2)cc1`: the “hERG current change (%, negative = inhibition) at 1uM” value is on record as 7.86%. `Cc1ccc2oc3nc(C)c(C(=O)O)cc3c(=O)c2c1`: the “hERG current change (%, negative = inhibition) at 1uM” value turned out to be 4.27%. Regarding `Cc1c(-c2ccccc2)oc2c(C(=O)N3CCN(c4ccccc4F)CC3)cccc2c1=O`, the “hERG current change (%, negative = inhibition) at 1uM” value was found to be 3.43%. To `COc1ccc(CNC(=O)COC(=O)c2c[nH]c(=O)[nH]c2=O)cc1OC` belongs 6.32%; to `CCc1c(C)nn(C(=O)/C(C#N)=C\N(C)C)c1C`, 0.484%. `O=C(c1cc(=O)[nH]c2ccccc12)N(Cc1nnc(-c2ccccc2Cl)o1)C1CC1`: the “hERG current change (%, negative = inhibition) at 1uM” value amounted to 9.28%.

Consider `COc1ccccc1NC(=O)NNC(=O)CCc1ccccc1`, for which the “hERG current change (%, negative = inhibition) at 1uM” value is given as 5.08%. On to `COc1ccc(N2CCN(C(=O)CN3C(=O)NC(C)(c4ccc5ccccc5c4)C3=O)CC2)cc1` (stereo not drawn), for which the “hERG current change (%, negative = inhibition) at 1uM” value was 9.62%. In the case of `COc1ccc(C(CC(=O)O)N2Cc3ccccc3C2=O)cc1` (stereo not drawn), the “hERG current change (%, negative = inhibition) at 1uM” value is recorded as 11.3%.

In the case of `COc1ccc(NC(C#N)c2ccc(OC)cc2)cc1` (stereo not drawn), the “hERG current change (%, negative = inhibition) at 1uM” value amounted to 17.2%.

Turning to `CC(=O)Nc1cccc(NC(=O)c2cc(Cl)ccc2Cl)c1`, the “hERG current change (%, negative = inhibition) at 1uM” value is on record as 11.7%. Regarding `COC(=O)c1[nH]c2ccccc2c1NC(=O)c1c(F)cccc1F`, the “hERG current change (%, negative = inhibition) at 1uM” value is reported as 14.4%. To `COc1cc(/C=C2/SC(=NCc3ccccc3)N(Cc3ccccc3)C2=O)ccc1O` belongs 11.1%; to `CN(C(=O)c1ccc(Oc2ccc([N+](=O)[O-])cc2)cc1)C1CCCCC1`, 7.52%. As to `O=C(/C=C/Sc1ccc(C(F)(F)F)cn1)c1ccccc1`, the “hERG current change (%, negative = inhibition) at 1uM” value was 12.8%. Take `O=C(/C=C/c1cccc(Br)c1)Nc1nn[nH]n1`: the “hERG current change (%, negative = inhibition) at 1uM” value came out at 11.9%. Consider `Cc1c(/C=N/NC(=O)CNc2ccccc2)c2ccccn2c1C(=O)c1ccncc1`, for which the “hERG current change (%, negative = inhibition) at 1uM” value turned out to be 12.8%. Turning to `CCC(=O)c1c[nH]c(C(=O)NCCc2ccccn2)c1`, the “hERG current change (%, negative = inhibition) at 1uM” value is given as 9.21%. As for `CCC(C)NC(=O)c1cc(-c2ccc3c(c2)OCO3)on1` (stereo not drawn), the “hERG current change (%, negative = inhibition) at 1uM” value was 11.4%.

On to `O=C(OCc1ccc([N+](=O)[O-])cc1)C1CCN(S(=O)(=O)c2ccccc2)CC1`, for which the “hERG current change (%, negative = inhibition) at 1uM” value is reported as -9.16%. To `CCOC(=O)c1[nH]ncc1CN1CCCC(C(=O)c2cccc3ccccc23)C1` (stereo not drawn) belongs -8.28%; to `Cc1nc2ccc(Br)cc2c(-c2ccccc2)c1C(=O)O`, 19.2%. To `CNC(=S)Nc1ccccc1-c1ccccc1` belongs 3.73%. For the compound `COc1ccc(C(=O)C2CCCN(C(=O)c3cccnc3OC)C2)c(C)c1` (stereo not drawn), the “hERG current change (%, negative = inhibition) at 1uM” value stood at 3.09%.

With `Fc1ccc(CNCCc2c[nH]c3ccccc23)cc1`, the “hERG current change (%, negative = inhibition) at 1uM” value was 14.2%. Regarding `Cc1csc(NC(=O)C2CCN(C(=O)c3ccccc3C)CC2)n1`, the “hERG current change (%, negative = inhibition) at 1uM” value is given as 19.7%. Turning to `Cc1ccccc1OCc1n[nH]c(=S)n1-c1ccccc1`, the “hERG current change (%, negative = inhibition) at 1uM” value was determined as 2.04%. Take `COc1ccc(NS(=O)(=O)c2cc(NC(=O)c3ccc(=O)[nH]c3)ccc2N2CCCC2)cc1`: the “hERG current change (%, negative = inhibition) at 1uM” value came out at 9.5%.

For the compound `O=C(CC1Sc2ccccc2NC1=O)NCc1ccccc1` (stereo not drawn), the “hERG current change (%, negative = inhibition) at 1uM” value is 7.73%. Next, `Cc1c(NS(=O)(=O)c2cccc3nsnc23)c(=O)n(-c2ccccc2)n1C`: 10.2%.

Consider `COc1ccc(NC(=O)CN(C)S(=O)(=O)c2ccc3c(c2)NC(=O)CS3)cc1`, for which the “hERG current change (%, negative = inhibition) at 1uM” value is given as 4.63%. For `Nn1c(SCc2cn3ccsc3n2)nnc1-c1ccncc1`, the “hERG current change (%, negative = inhibition) at 1uM” value worked out at 8.08%.

On to `COc1ccc(OC)c(C2Nc3c(Cl)ccc(C(=O)O)c3C3C=CCC32)c1` (stereo not drawn), for which the “hERG current change (%, negative = inhibition) at 1uM” value is on record as 6.06%. As for `O=C(Nn1cnnc1)C1CCCN1S(=O)(=O)c1ccc(F)cc1` (stereo not drawn), the “hERG current change (%, negative = inhibition) at 1uM” value is recorded as 12.9%. To `COCCn1c(N)c(Sc2ccccc2)c(=O)[nH]c1=O` belongs 12.5%; to `COc1cccc(CCNCc2c(F)cccc2F)c1.O=C(O)C(=O)O`, 0.781%. As to `O=c1onc(-c2ccc(Cl)cc2)n1Cc1ccc(F)cc1`, the “hERG current change (%, negative = inhibition) at 1uM” value is reported as -1.5%. Next, `COC(=O)CN1C(=S)N(c2ccccc2)C(=O)C1CC(=O)Nc1ccc(Cl)cc1` (stereo not drawn): 6.72%. `CCOc1ccc(-c2nc(CSCC(=O)NCC3CCCO3)c(C)o2)cc1` (stereo not drawn): the “hERG current change (%, negative = inhibition) at 1uM” value is given as 13.9%. Next, `COc1ccc(C(O)P(=O)(OCC(C)C)OCC(C)C)c(OC)c1` (stereo not drawn): 17.7%.

As to `O=c1c2ccccc2n2c(-c3cccc(F)c3)nnc2n1Cc1ccccc1`, the “hERG current change (%, negative = inhibition) at 1uM” value came out at 15.8%.

For `Cc1c(CNC2CCC(C)CC2)c(C(=O)O)c(C)n1Cc1ccccc1` (stereo not drawn), the “hERG current change (%, negative = inhibition) at 1uM” value worked out at 3.4%. As to `Cc1cccc(C)c1OCC(=O)Nn1c(=O)[nH]c2ccccc2c1=O`, the “hERG current change (%, negative = inhibition) at 1uM” value turned out to be 11.1%. On to `CCn1c(SCC(=O)Nc2nc(-c3ccccc3)cs2)nnc1-c1ccccc1O`, for which the “hERG current change (%, negative = inhibition) at 1uM” value is 0.762%. `CCOC(=O)C1=C(C)N(CCCC(=O)O)C(=O)NC1C(CC)CC` (stereo not drawn): the “hERG current change (%, negative = inhibition) at 1uM” value is on record as 15.3%. For the compound `COc1cc(C(=O)NC(=S)Nc2ccc(Cl)cn2)cc(OC)c1OC`, the “hERG current change (%, negative = inhibition) at 1uM” value came out at 12.2%.

For `CCc1ccc(NC(=O)C2=CC(c3ccc(OC)cc3)=NS(=O)(=O)N2C)cc1`, the “hERG current change (%, negative = inhibition) at 1uM” value was -2.78%.

As for `O=c1[nH]ncc2c3ccccc3n(Cc3ccccc3F)c12`, the “hERG current change (%, negative = inhibition) at 1uM” value was 5.16%. For `O=C(COC(=O)/C=C/c1cccc(Cl)c1)NCCc1ccc(Cl)cc1Cl`, the “hERG current change (%, negative = inhibition) at 1uM” value worked out at 11.6%. `N#C/C(=C\c1ccc(Sc2ccccc2)o1)c1nc2ccccc2[nH]1`: the “hERG current change (%, negative = inhibition) at 1uM” value amounted to 9.78%. To `COc1ccc(OC)c(CN2CCC(C(=O)N3CCN(c4ccccc4F)CC3)CC2)c1.O=C(O)C(=O)O` belongs -10.6%. Next, `CCOC(=O)c1csc(NC(=O)c2cc(OC)c(OC)c(OC)c2)n1`: -1.61%. In the case of `CCCCCCOc1ccc(OCC(O)CN2C(=O)NC(C)(C)C2=O)cc1` (stereo not drawn), the “hERG current change (%, negative = inhibition) at 1uM” value stood at 14.4%.
